Test results as given in the supplement of paper PMC3334620.
The full ranking holds about 33,000 sequences; the median of “E-score (-0.5 to 0.5)” is about -0.012, and the highest 2% start at about 0.29. The list shows a part of the results.

Biological target: T1, Ybr033w (UniProt P38073)
T1 sequence: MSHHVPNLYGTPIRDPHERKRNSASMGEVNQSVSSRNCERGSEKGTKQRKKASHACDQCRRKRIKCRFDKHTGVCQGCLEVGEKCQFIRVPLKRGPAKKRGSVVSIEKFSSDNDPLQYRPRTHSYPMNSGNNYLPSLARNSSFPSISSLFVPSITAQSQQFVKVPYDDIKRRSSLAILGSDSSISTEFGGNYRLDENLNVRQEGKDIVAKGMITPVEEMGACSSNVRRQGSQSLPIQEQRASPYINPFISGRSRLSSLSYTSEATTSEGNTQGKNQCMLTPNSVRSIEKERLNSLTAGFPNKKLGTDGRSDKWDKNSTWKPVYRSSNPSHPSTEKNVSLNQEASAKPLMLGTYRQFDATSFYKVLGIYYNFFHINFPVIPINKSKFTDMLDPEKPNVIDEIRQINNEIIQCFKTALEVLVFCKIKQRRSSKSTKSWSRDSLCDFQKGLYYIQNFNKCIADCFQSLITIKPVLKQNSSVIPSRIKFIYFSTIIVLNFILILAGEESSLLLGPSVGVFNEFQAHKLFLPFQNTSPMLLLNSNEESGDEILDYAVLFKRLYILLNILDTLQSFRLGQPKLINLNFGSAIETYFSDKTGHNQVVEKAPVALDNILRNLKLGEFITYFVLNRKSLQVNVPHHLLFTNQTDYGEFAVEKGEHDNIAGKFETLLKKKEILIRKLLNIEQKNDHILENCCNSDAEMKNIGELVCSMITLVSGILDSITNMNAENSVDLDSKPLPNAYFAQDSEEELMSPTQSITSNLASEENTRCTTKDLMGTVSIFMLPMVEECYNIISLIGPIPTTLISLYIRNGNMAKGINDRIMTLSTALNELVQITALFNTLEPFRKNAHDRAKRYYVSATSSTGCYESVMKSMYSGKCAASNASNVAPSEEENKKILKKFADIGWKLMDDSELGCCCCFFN
Assay: PBM E-score (8-mer binding enrichment) (E-score (-0.5 to 0.5)); higher = stronger / more preferred TF binding; most listed sequences are background and not binding sites
Conditions: protein concentration: 200 nM; construct: GST-full length
In short: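 Universal all-10-mer Agilent arrays, fresh or stripped once, were converted to double-stranded form by primer extension. GST-tagged yeast transcription factors from PURExpress in vitro transcription/translation, full-length or DNA-binding domain only, were applied at about 100-200 nM and detected with fluorescent anti-GST. After masliner normalisation, the Universal PBM Analysis Suite scored each ungapped eight-base word together with its reverse complement by E-score.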

Going from GCGTAGCA to ACCGCCGT, the “PBM E-score” value falls from -0.019 to -0.154.

First: GATCTGCC
Second: AAAGAATC
The “PBM E-score” value of the first is lower: -0.18 for the first, 0.00391 for the second.

First: GAGCAGCA
Second: ACAGCAAT
The “PBM E-score” value of the first is lower: -0.0932 for the first, 0.192 for the second.

Going from CCGTTCCC to ATACGATC, the “PBM E-score” value rises from -0.227 to 0.0365.

First: AGAGCTAG
Second: CTAGAGGA
The “PBM E-score” value of the first is lower: -0.141 for the first, -0.102 for the second.

Compared with GTAGTCAC, AAGGGGTG is lower in “PBM E-score” value: -0.156 for the first, -0.332 for the second.

Compared with CGCTACTC, ACTTCGAT is lower in “PBM E-score” value: 0.108 for the first, 0.0816 for the second.

Compared with AGTGTAGC, GCCTGCAA is lower in “PBM E-score” value: 0.12 for the first, -0.119 for the second.

Compared with AATGTGCA, GGAGTGCA is lower in “PBM E-score” value: 0.0839 for the first, -0.0904 for the second.

First: GTAAATAC
Second: AGTGAGCG
The “PBM E-score” value of the first is higher: 0.166 for the first, 0.0395 for the second.

Going from AAGCAAGC to AAGTTTCC, the “PBM E-score” value rises from 0.0236 to 0.186.

Going from TTGCGAAA to GAAAAGTA, the “PBM E-score” value falls from 0.275 to 0.171.

First: AGCATGGG
Second: GAATGAGA
The “PBM E-score” value of the first is lower: -0.172 for the first, 0.0873 for the second.

First: AACAAATT
Second: CTTTCTTC
The “PBM E-score” value of the first is higher: 0.374 for the first, 0.0146 for the second.

Compared with CGATGTAG, GGAACATA is higher in “PBM E-score” value: -0.106 for the first, 0.313 for the second.

Going from CTAACGGA to AGAAATAC, the “PBM E-score” value falls from 0.136 to 0.104.

Compared with AGGATACG, AGCTAGTA is higher in “PBM E-score” value: -0.15 for the first, 0.17 for the second.

Going from CTTCAAAC to GCGATGAA, the “PBM E-score” value rises from -0.136 to -0.0988.

Going from AGCTAGCT to AGTATTTA, the “PBM E-score” value rises from 0.0325 to 0.301.

First: CTGAAACA
Second: ATGGTAGA
The “PBM E-score” value of the first is lower: 0.145 for the first, 0.172 for the second.

Compared with GAGGAGGC, AACACGGT is higher in “PBM E-score” value: -0.296 for the first, 0.07 for the second.

Compared with CTTAAACC, GACAATCA is lower in “PBM E-score” value: 0.119 for the first, 0.0041 for the second.

Going from CACGTGGC to CCTGTTTA, the “PBM E-score” value rises from -0.295 to -0.164.

First: CGAGTAAG
Second: GGCCCACA
The “PBM E-score” value of the first is higher: 0.226 for the first, -0.126 for the second.

First: GGACCACC
Second: CGATGAAC
The “PBM E-score” value of the first is higher: 0.029 for the first, -0.00159 for the second.

First: ACAAGTGG
Second: AGGCGGTC
The “PBM E-score” value of the first is higher: 0.00473 for the first, -0.231 for the second.

Compared with CCTCGCGA, ATCCGTAC is higher in “PBM E-score” value: -0.164 for the first, 0.109 for the second.

Going from ACATGCAA to ACCGAATC, the “PBM E-score” value falls from 0.0151 to -0.0298.

First: ACAAGCGC
Second: CTGCCACC
The “PBM E-score” value of the first is higher: -0.145 for the first, -0.303 for the second.

Going from CGGCTCAG to CATGATAA, the “PBM E-score” value rises from -0.101 to 0.152.

Compared with TGTAGACA, ATCGTGTA is lower in “PBM E-score” value: 0.149 for the first, 0.0262 for the second.

Compared with CTCGGAAC, ACGCATAG is lower in “PBM E-score” value: 0.113 for the first, -0.00897 for the second.

Going from CTGTTCTA to GCATGTCC, the “PBM E-score” value falls from -0.094 to -0.206.

Compared with ACGCATCT, CAGTCGCA is lower in “PBM E-score” value: 0.00301 for the first, -0.102 for the second.

Compared with TATTACGA, CCTCGTTC is lower in “PBM E-score” value: 0.297 for the first, -0.0908 for the second.

First: AATCCCAA
Second: ATCAAACA
The “PBM E-score” value of the first is lower: 0.0668 for the first, 0.227 for the second.

Going from ATATTGAT to CGGGGCCA, the “PBM E-score” value falls from 0.39 to -0.159.

Compared with CACACCTA, ACGCATAT is lower in “PBM E-score” value: 0.166 for the first, -0.0358 for the second.

Going from CAATTATG to ACTGGCAT, the “PBM E-score” value falls from 0.08 to -0.0492.

Compared with AGGTACTG, GGGACCAC is lower in “PBM E-score” value: 0.048 for the first, -0.201 for the second.

Going from AGCCGATG to AAATTAAC, the “PBM E-score” value rises from -0.00654 to 0.251.

Going from ACGGAGAT to ATTAGACA, the “PBM E-score” value rises from -0.0576 to 0.183.

Compared with TTTCGAAA, GTCGCTAA is lower in “PBM E-score” value: 0.227 for the first, 0.0848 for the second.

First: ATATTATG
Second: ATATGCAA
The “PBM E-score” value of the first is higher: 0.315 for the first, 0.0194 for the second.

Going from AACTATTA to CTGGTCCC, the “PBM E-score” value falls from 0.213 to -0.283.

Compared with CCAACGAG, ACTTAATG is higher in “PBM E-score” value: -0.303 for the first, 0.151 for the second.

Going from AGCGTTCC to CTATTGAG, the “PBM E-score” value falls from -0.00963 to -0.0501.

Compared with GATTAATC, CATCCTCG is lower in “PBM E-score” value: 0.435 for the first, 0.0128 for the second.

Going from CCCGGGTC to AGCGCGGC, the “PBM E-score” value falls from -0.196 to -0.204.

Compared with CGGGTAAA, CTACTCTA is higher in “PBM E-score” value: 0.208 for the first, 0.212 for the second.

Compared with ATTTGGTA, GATCTGAC is lower in “PBM E-score” value: 0.27 for the first, -0.16 for the second.

Compared with CGATTAAA, ATTTTTGA is higher in “PBM E-score” value: 0.174 for the first, 0.204 for the second.

Going from AAGTGGTA to CCTCACCA, the “PBM E-score” value falls from 0.0726 to -0.0744.

First: AAGAAATG
Second: AGGGCTCG
The “PBM E-score” value of the first is higher: 0.106 for the first, -0.137 for the second.

Going from ACCGAGGG to ACGGACAC, the “PBM E-score” value rises from -0.379 to -0.119.

Going from CTCCTCGA to CTTCGCGC, the “PBM E-score” value rises from -0.126 to 0.087.

Going from CAACACGG to CCAACTAC, the “PBM E-score” value rises from -0.0425 to 0.08.

Compared with TATTAATA, CCATCGAG is higher in “PBM E-score” value: 0.101 for the first, 0.103 for the second.

Going from CCGCTCAG to AAGATTCA, the “PBM E-score” value rises from -0.111 to 0.112.

Going from AAGACTAT to AAGGGACT, the “PBM E-score” value falls from 0.116 to -0.0262.

Compared with CAGCCTAA, GACACAGA is higher in “PBM E-score” value: -0.134 for the first, -0.0692 for the second.

First: GTCTCCAC
Second: AAGGCAGA
The “PBM E-score” value of the first is lower: -0.0474 for the first, -0.0306 for the second.

Going from CTCTGGTC to CGATCCTC, the “PBM E-score” value falls from 0.0477 to -0.118.

Compared with TCCATAAA, CCCTATAA is lower in “PBM E-score” value: 0.0621 for the first, -0.0973 for the second.

Compared with ACGTACTC, AGATAATC is higher in “PBM E-score” value: -0.0193 for the first, 0.306 for the second.

Compared with CAGCGATA, GATCCAGA is higher in “PBM E-score” value: 0.00335 for the first, 0.149 for the second.

Going from CCACGCCG to AATGGTTA, the “PBM E-score” value rises from -0.189 to 0.0304.

Going from ATCGAGAC to ATCGTGCA, the “PBM E-score” value rises from -0.0799 to -0.0327.

Compared with AGCCATAT, CTGGACTA is lower in “PBM E-score” value: 0.0848 for the first, -0.102 for the second.

First: CAGGTTCA
Second: GCGATCTA
The “PBM E-score” value of the first is higher: 0.026 for the first, -0.0272 for the second.

Going from CGTGTGAA to CCAAGGAG, the “PBM E-score” value rises from -0.0687 to 0.0969.

First: GACACCTA
Second: GTTCATAA
The “PBM E-score” value of the first is lower: -0.123 for the first, 0.199 for the second.

Compared with AATCTACC, GTCTGTTA is lower in “PBM E-score” value: 0.0877 for the first, 0.0183 for the second.

Compared with ACTGTCCG, TGCGTACA is higher in “PBM E-score” value: -0.166 for the first, -0.0421 for the second.

First: CGCTGAGA
Second: TACAACAA
The “PBM E-score” value of the first is lower: -0.112 for the first, 0.154 for the second.

Compared with GCCAGAAA, AACCTTAC is higher in “PBM E-score” value: 0.126 for the first, 0.257 for the second.

First: CTGTGGTA
Second: CAGCAGTC
The “PBM E-score” value of the first is higher: 0.0549 for the first, -0.0918 for the second.

First: CCATATAC
Second: ATTGATAG
The “PBM E-score” value of the first is lower: 0.0859 for the first, 0.257 for the second.

First: AGGGCGGC
Second: ACACTTCT
The “PBM E-score” value of the first is lower: -0.353 for the first, -0.131 for the second.

Going from CTATGAAA to ATATAACA, the “PBM E-score” value rises from 0.109 to 0.272.

First: ATGCGTTG
Second: ACTCTCTC
The “PBM E-score” value of the first is lower: -0.0395 for the first, -0.0127 for the second.

Compared with GACTTAAA, AGTATACA is higher in “PBM E-score” value: 0.0498 for the first, 0.185 for the second.

Going from ACTGTTTG to ACTTTGGA, the “PBM E-score” value rises from 0.0601 to 0.156.

Compared with CTGGGAAC, GCATCCAC is higher in “PBM E-score” value: 0.0276 for the first, 0.0709 for the second.

Going from GGTTTAAC to GAGTGCGA, the “PBM E-score” value falls from 0.00357 to -0.158.

Compared with CAACATAC, ACTTCACA is higher in “PBM E-score” value: 0.0539 for the first, 0.204 for the second.
